In PubChem BioAssay AID686978 (National Center for Advancing Translational Sciences (NCATS), 2013):
Where “and” joins values, the source holds several entries; their conditions need not be identical. Equal values may be shown once. About 64,000 (15%) of roughly 420,000 compounds were called active. The shares of active, inactive and inconclusive entries below differ from those in the screen. The call rests on the fitted dose curve; in most records, active means well fitted inhibition curve with a large enough effect; inconclusive means small, poorly fitted or top-dose-only effect; inactive means flat fitted curve, though single readings scatter. No potency is given beside an inconclusive call; the fits are too rough.

assay: qHTS for Inhibitors of human tyrosyl-DNA phosphodiesterase 1 (TDP1): qHTS in cells in absence of CPT; conditions: DT40 Tdp1-/- hTDP1 cells, no CPT, ATP luminescence, 48 h; activity change, negative = growth inhibition: at 46.2 µM (top of the series) unless noted; further: nearly all actives have a fitted effect of over 55% in size
How it was run: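 Cells were dispensed at 400 per well, compounds added by pin tool, plates incubated ≥48 hr at 37 °C, then CellTiter-Glo added for 30 min at room temperature before luminescence reading. Line: DT40 Tdp1-/- complemented with hTDP1; camptothecin omitted.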
On the % scale 0 is the no-effect control and ±100 the full control effect; potency means the concentration at half of the fitted maximal effect; tags describe the fitted curve by direction and shape.

SMILES	Potency	activity change, negative = growth inhibition
CN(C(=O)C=Cc1ccco1)c1ccccc1	inconclusive [inhibitor, single point]	–
Nc1[nH]n2c(=O)c3c(nc2c1N=Nc1ccc(Cl)cc1)CCCC3	inconclusive [inhibitor, single point]	–
CCOC(=O)CSc1nc(-c2ccc(F)cc2)cc(C(F)(F)F)c1C#N	inactive	–
CC1(C)CC(=O)C(C=NCC2CCNCC2)=C(O)C1	inconclusive [inhibitor, single point]	–
COc1ccc(C2CC(=O)C=C3c4ccc(OC)cc4CCC32)cc1 (configuration not stated)	active: 25.9 µM	–
O=C(CCNC(=O)c1ccc([N+](=O)[O-])cc1)NNC(=O)c1ccccc1F	inactive	–
COc1ccc(/C=C(/NC(=O)c2ccco2)C(=O)Nc2ccc(C(=O)O)cc2)cc1	inactive	–
COc1c(F)c(F)c(C(=O)Nc2ccccc2N2CCN(C(=O)C(C)C)CC2)c(F)c1F	inconclusive [inhibitor, partial curve]	–
CCSc1nc2sc3c(c2c(=O)[nH]1)CC(C)(CC)OC3 (configuration not stated)	inactive	–
COc1ccc(-n2c(C)c(C(C)=O)c3cc(OCC(N)=O)ccc32)cc1	inconclusive [inhibitor, single point]	–
COc1ccc(C2=NOC(C)(c3nnc(-c4ccc(F)cc4)o3)C2)cc1 (configuration not stated)	inactive	–
COc1ccc(CCNc2nc3ccc(C)cc3n3cnnc23)cc1OC	active: 16.4 µM and active: 23.1 µM	–
O=C(c1cccn1-c1nnc(N2CCCCC2)s1)N1CCN(c2ccc(Cl)cc2)CC1	active: 25.9 µM	–
Nc1cc(-c2ccc(OC(F)(F)F)cc2)nn1-c1ccc(Cl)c(Cl)c1	inconclusive [inhibitor, single point]	–
COc1ccc(CSc2n[nH]c(=O)[nH]c2=O)cc1	inactive	–
COc1ccc(OC)c(C2=NOC(C(=O)N3CCCc4ccccc43)C2)c1 (configuration not stated)	inconclusive [inhibitor, single point]	–
CCc1cc2c(Nc3ccccc3O)nc(C)nc2s1	inconclusive [inhibitor, partial curve]	–
Cc1ccc(O)c(NC(=S)NC(=O)CC(C)C)c1	inconclusive [inhibitor, partial curve]	–
CC(C)Oc1ccc(CNC(=O)c2ccc3nc(C(C)C)oc3c2)cc1	inconclusive [inhibitor, single point]	–
CN(C)c1ccc(C(=O)Nc2c(C(=O)NC(C)(C)C)oc3ccccc23)cc1	inconclusive [inhibitor, single point]	–
Cc1cc(C)cc(NC(=O)C(CC(C)C)NC(=O)C2CCCCC2)c1 (configuration not stated)	inconclusive [inhibitor, single point]	–
CCc1c(C)nc2ncnn2c1N1CCCC(C(=O)NCc2ccc3c(c2)OCO3)C1 (configuration not stated)	active: 20.6 µM	–
Cc1occc1-c1nnc(SCC(=O)Nc2ccccc2)n1C(C)c1ccccc1 (configuration not stated)	inconclusive [inhibitor, single point]	–
CCn1c(C(=O)N2CCC(C(=O)N3CCN(c4ccc(OC)cc4)CC3)CC2)cc2sccc21	active: 13 µM	–

SMILES	Potency	activity change, negative = growth inhibition
CN(Cc1nccs1)C(=O)C1CCC(=O)N(Cc2ccccc2F)C1 (configuration not stated)	inactive	–
COc1ccc(S(=O)(=O)N(CC(=O)Nc2cc(C)cc(C)c2)c2ccc(Cl)cc2)cc1	active: 23.1 µM	–
CC(O)(c1cccc(F)c1)c1nc(-c2cccc3cccnc23)cs1 (configuration not stated)	active: 25.9 µM	–
COC(=O)c1ccc(OC)c(CSc2nnc(COc3ccc(Cl)cc3)o2)c1	inactive	–
CCNc1nc(NC(C)(C)C)nc(Oc2ccc(=O)n(-c3ccccc3)n2)n1	active: 20.6 µM	–
CC1=CN(S(=O)(=O)c2ccc(C)cc2)C[C@@H]2[C@H]3CC[C@H](C3)[C@H]12	inconclusive [inhibitor, single point]	–
Cc1ccc(S(=O)(=O)N2C[C@H]3n4c(=O)ccc(=O)n4C[C@H](OC(=O)Nc4cccs4)[C@@]3(O)C2)cc1	inconclusive [inhibitor, single point]	–
COc1ccccc1NC(=O)CCSCCC(=O)Nc1ccccc1OC	inconclusive [inhibitor, single point]	–
Cc1ccn2cc(-c3cccc(NC(=O)CCC(=O)O)c3)nc2c1	inconclusive [inhibitor, partial curve]	–
CCc1ccccc1N1CC(c2nc3ccccc3n2CCOc2ccc(Cl)c(C)c2)CC1=O (configuration not stated)	active: 20.6 µM	–
CCCc1cc(=O)[nH]c(Nc2ccccc2O)n1	inactive	–
NS(=O)(=O)c1ccc(CCNCc2cc(Br)ccc2OCc2ccccc2)cc1	active: 11.6 µM	–
COC(=O)c1c(C)[nH]c(C)c1-c1ccc(C)cc1	inconclusive [inhibitor, partial curve]	–
Cc1ccccc1CC(=O)N1CCCC(CCC(=O)N2CCN(c3ccccn3)CC2)C1 (configuration not stated)	inactive	–
C/C=C/c1cnc2c(c1)C(=O)N([C@@H](C)CO)C[C@H](C)[C@@H](CN(C)S(=O)(=O)c1ccc(C)cc1)O2	active: 23.1 µM	–
Cc1cccc(C)c1OC1(c2ccccc2)OC(=O)c2ccccc21 (configuration not stated)	inconclusive [inhibitor, single point]	–
COc1ccc(-c2nc3scc(CCNS(=O)(=O)c4c(C)cc(C)cc4C)n3n2)cc1OC	active: 23.1 µM	–
Cn1nnnc1Sc1ccc([N+](=O)[O-])cc1Cl	inactive	–
CCCC(NCC(O)COc1ccc(-c2ccccc2)cc1)c1ccccc1 (configuration not stated)	active: 4.11 µM	–
Cc1ccc(C)c(NC(=S)NNC(=O)c2csc(C)c2C)c1	inconclusive [inhibitor, single point]	–
COc1ccc(/C(C)=N/NC(=O)CNC(=O)C(c2ccccc2)c2ccccc2)c(OC)c1	inconclusive [inhibitor, single point]	–
COc1ccc(C(=O)CC(=O)C(=O)Nc2ccc(Cl)cc2)cc1	active: 20.6 µM	–
O=C1CCCN1c1ccc(S(=O)(=O)Oc2cccc(Cl)c2)cc1[N+](=O)[O-]	inconclusive [inhibitor, partial curve, poor fit]	–
COc1ccc(C2=NS(=O)(=O)N(C)C(C(=O)NCc3ccc(F)cc3)=C2)cc1OC	inconclusive [inhibitor, single point]	–

SMILES	Potency	activity change, negative = growth inhibition
CCOc1ccccc1C(=O)N/N=C/c1coc2ccc(C)cc2c1=O	inconclusive [inhibitor, single point]	–
COCCN1Cc2cccc(C(=O)Nc3ccc4c(c3)OCCO4)c2C1=O	–	inconclusive: -32.7% [inhibitor]
NC(=O)c1ncn([C@@H]2O[C@H](CO)[C@@H](O)[C@H]2O)c1N	inactive	–
Cc1ccc2occ(/C=N/NC(=O)c3ccncc3)c(=O)c2c1	inactive	–
CC(=O)c1c(C)n(-c2ccc(Cl)cc2)c2ccc(OC(=O)COc3ccccc3)cc12	inactive	–
CC(=O)c1cccc(NC(=O)c2ccc(Cl)c(S(=O)(=O)N3CCOCC3)c2)c1	active: 0.461 µM	–
COc1ccc(C(=O)N/C(=C\c2ccc(-c3cccc([N+](=O)[O-])c3)o2)C(=O)NCCCN2CCOCC2)cc1	active: 16.4 µM	–
COc1cccc(COC(=O)C2CC(=O)N(Cc3ccc(C)cc3)C2)c1OC (configuration not stated)	inactive	–
O=CNc1ccc2c3c(cccc13)-c1ccccc1-2	inconclusive [inhibitor, single point]	–
COc1ccc(-c2nc3ccc(Cl)cn3c2CC(C)(C)C)cc1OC	inactive	–
O=C(c1c(F)cccc1Cl)N1CCN(S(=O)(=O)c2ccc3c(c2)OCCCO3)CC1	inconclusive [inhibitor, single point]	–
O=C(C1=NN[C@@H]2C(=O)N(Cc3ccccc3)C(=O)[C@H]12)c1ccc([N+](=O)[O-])cc1	inactive	–
O=C(Nc1ccccc1F)C(=Cc1sc(N2CCOCC2)nc1-c1ccccc1)C(=O)Nc1ccccc1F	active: 5.17 µM	–
C=CCOc1cccc(C(=O)N2CCCC(CCC(=O)NCc3ccccc3F)C2)c1 (configuration not stated)	inconclusive [inhibitor, single point]	–
O=C(Nc1ccc(Cl)c(S(=O)(=O)N2CCOCC2)c1)c1cn2ccccc2n1	inconclusive [inhibitor, single point]	–
O=C(c1cccc(S(=O)(=O)NCc2ccccc2)c1)N1CCN(Cc2ccccc2)CC1	inconclusive [inhibitor, single point]	–
Nc1ccccc1Sc1ccc(C(F)(F)F)cc1[N+](=O)[O-]	inconclusive [inhibitor, single point]	–
COc1ccc(/C=N/NC(=O)c2cccnc2)cc1CN1CCc2ccccc2C1	inconclusive [inhibitor, single point]	–
COc1ccc(C2=NS(=O)(=O)N(C)C(C(=O)Nc3ccc(OC(F)(F)F)cc3)=C2)cc1	inconclusive [inhibitor, single point]	–
CC(=O)Nc1ccc(NC(=O)c2nccnc2C(=O)O)cn1	inactive	–
c1ccc(N2CCN(Cc3nnc(-c4ccc5c(c4)OCO5)o3)CC2)cc1	inconclusive [inhibitor, single point]	–
CC(C)Cn1c(SCC(=O)NC2CC2)nc2ccc(Cl)cc2c1=O	inconclusive [inhibitor, single point]	–
COc1ccc2c(c1)c(CC(=O)Nc1cc(C)ccc1C)c(C)n2C(=O)c1ccc(Cl)cc1	active: 16.4 µM	–
Cc1ccc(-n2nnnc2SCC(=O)Nc2cccc(NC(=O)c3ccco3)c2)cc1C	active: 16.4 µM	–
